Measurements reported in a collection of fitness landscapes (doi:10.1126/science.1257360).
This is one part of the list.

B1: PhoQ; a variant is named by its letters at X, in order, P23837 (parent)
chain: MKKLLRLFFPLSLRVRFLLATAAVVLVLSLAYGMVALIGYSVSFDKTTFRLLRGESNLFYTLAKWENNKLHVELPENIDKQSPTMTLIYDENGQLLWAQRDVPWLMKMIQPDWLKSNGFHEIEADVNDTSLLLSGDHSIQQQLQEVREDDDDAEMTHSVAVNVYPATSRMPKLTIVVVDTIPVELKSSYMVWSWFIYVLSANLLLVIPLLWVAAWWSLRPIEALAKEVRELEEHNRELLNPATTRELTSLVRNLNRLLKSERERYDKYRTTLTDLTHSLKTPLXXLQXXLRSLRSEKMSVSDAEPVMLEQISRISQQIGYYLHRASMRGGTLLSRELHPVAPLLDNLTSALNKVYQRKGVNISLDISPEISFVGEQNDFVEVMGNVLDNACKYCLEFVEISARQTDEHLYIVVEDDGPGIPLSKREVIFDRGQRVDTLRPGQGVGLAVAREITEQYEGKIVAGESMLGGARMEVIFGRQHSAPKDE

Variants of: B1
Assay: enrichment ratio after two sorts for PhoP signalling (ratio (wild type AVST 3.29)); higher = more functional
Conditions: with PhoP (E. coli)

Variant | enrichment ratio
PVIM | ≤ 0.25
RSGW | ≤ 0.25
NFPT | ≤ 0.25
LEYW | ≤ 0.25
NEAG | 2.93
WEVC | ≤ 0.25
AQRT | ≤ 0.25
HQVP | 1.27
IKIL | ≤ 0.25
MPRC | ≤ 0.25
ARKV | ≤ 0.25
GYYQ | ≤ 0.25
RSCG | ≤ 0.25
YRFR | ≤ 0.25
GLME | ≤ 0.25
TRDA | ≤ 0.25
EGLG | ≤ 0.25
MAAC | ≤ 0.25
KMQR | ≤ 0.25
NVAF | ≤ 0.25
TETD | 2.04
STHS | ≤ 0.25
AQAT | 5.01
HLKW | ≤ 0.25
AMVS | 2.64
IPGW | ≤ 0.25

Variant | enrichment ratio
LFKS | ≤ 0.25
SWVI | 0.656
TVYT | ≤ 0.25
WCCR | ≤ 0.25
QEFC | ≤ 0.25
TYKG | ≤ 0.25
KFQY | 0.877
IWPA | ≤ 0.25
SASG | 8.64
NPLG | ≤ 0.25
VITK | ≤ 0.25
PFSS | ≤ 0.25
MIHY | ≤ 0.25
THNI | 14.1
ITEG | 0.328
ALHM | ≤ 0.25
WVLA | ≤ 0.25
YMWK | ≤ 0.25
EQLK | ≤ 0.25
KPHW | ≤ 0.25
ESMI | ≤ 0.25
TAID | ≤ 0.25
MVHN | ≤ 0.25
EPGN | ≤ 0.25
DDAL | ≤ 0.25
NVDF | ≤ 0.25

Variant | enrichment ratio
TSLK | 5.37
TQMM | 57.7
WKHP | ≤ 0.25
LDPD | ≤ 0.25
VQAK | ≤ 0.25
KKSW | ≤ 0.25
MAQY | ≤ 0.25
SQHK | ≤ 0.25
MGHA | ≤ 0.25
HMVD | ≤ 0.25
PHCN | ≤ 0.25
SSNV | 3.46
AMDN | ≤ 0.25
CYLN | ≤ 0.25
GNRH | ≤ 0.25
EHYF | ≤ 0.25
QEQP | ≤ 0.25
DIYL | ≤ 0.25
HSRH | ≤ 0.25
YYSG | ≤ 0.25
RHRW | ≤ 0.25
TDGN | ≤ 0.25
AMKA | ≤ 0.25
VAFK | ≤ 0.25
GMRS | ≤ 0.25
